Source: the supplement of paper PMC8728848
This is one part of the list.

Tests used:
Assay in all cases: glycan array binding signal (z-score within array); higher = stronger binding
Settings in all cases: glycan notation: IUPAC condensed, linker removed; mutation: R343V
Gal(b1-3)GlcNAc = molecular target: Gal(b1-3)GlcNAc
Outline: (§1)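 Columns mapping to the same glycan were averaged after glycan names were converted to IUPAC-condensed notation. The data come from 3228 arrays in the Consortium for Functional Glycomics database, limited to those with an available protein sequence. Binding is reported as a within-array Z-score averaged across arrays of one protein sequence and across linkers.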

[1] = molecular target: Gal(b1-3)GlcNAc(b1-2)Man(a1-3)[Gal(b1-3)GlcNAc(b1-2)Man(a1-6)]Man(b1-4)GlcNAc(b1-4)GlcNAc
Outline: as §1

[2] = molecular target: Gal(b1-3)GlcNAc(b1-3)Gal(b1-3)GlcNAc
Outline: as §1

[3] = molecular target: Gal(b1-3)GlcNAc(b1-3)Gal(b1-4)Glc
Outline: as §1

[4] = molecular target: Gal(b1-3)GlcNAc(b1-3)Gal(b1-4)GlcNAc
Outline: as §1

[5] = molecular target: Gal(b1-3)[Fuc(a1-4)]GlcNAc
Outline: as §1

[6] = molecular target: Gal(b1-3)[Fuc(a1-4)]GlcNAc(b1-3)Gal(b1-3)[Fuc(a1-4)]GlcNAc
Outline: as §1

[7] = molecular target: Gal(b1-3)[Fuc(a1-4)]GlcNAc(b1-3)Gal(b1-4)GlcNAc
Outline: as §1

[8] = molecular target: Gal(b1-3)[Fuc(a1-4)]GlcNAc(b1-3)Gal(b1-4)[Fuc(a1-3)]GlcNAc
Outline: as §1

[9] = molecular target: Gal(b1-3)[GlcNAc(b1-6)]GalNAc
Outline: as §1

[10] = molecular target: Gal(b1-3)[Neu5Ac(a2-6)]GalNAc
Outline: as §1

[11] = molecular target: Gal(b1-3)[Neu5Ac(a2-6)]GlcNAc(b1-6)Gal(b1-4)Glc
Outline: as §1

[12] = molecular target: Gal(b1-3)[Neu5Ac(b2-6)]GalNAc
Outline: as §1

[13] = molecular target: Gal(b1-4)GalNAc(a1-3)[Fuc(a1-2)]Gal(b1-4)GlcNAc
Outline: as §1

[14] = molecular target: Gal(b1-4)GalNAc(b1-3)[Fuc(a1-2)]Gal(b1-4)GlcNAc
Outline: as §1

Gal(b1-4)Glc = molecular target: Gal(b1-4)Glc
Outline: as §1

Gal(b1-4)Glc6S = molecular target: Gal(b1-4)Glc6S
Outline: as §1

Gal(b1-4)GlcNAc = molecular target: Gal(b1-4)GlcNAc
Outline: as §1

[15] = molecular target: Gal(b1-4)GlcNAc(a1-6)Gal(b1-4)GlcNAc
Outline: as §1

[16] = molecular target: Gal(b1-4)GlcNAc(b1-2)Man(a1-3)[Gal(b1-4)GlcNAc(b1-2)Man(a1-6)]Man(b1-4)GlcNAc(b1-4)GlcNAc
Outline: as §1

[17] = molecular target: Gal(b1-4)GlcNAc(b1-3)Gal(b1-3)GlcNAc
Outline: as §1

[18] = molecular target: Gal(b1-4)GlcNAc(b1-3)Gal(b1-4)Glc
Outline: as §1

[19] = molecular target: Gal(b1-4)GlcNAc(b1-3)Gal(b1-4)GlcNAc
Outline: as §1

[20] = molecular target: Gal(b1-4)GlcNAc(b1-3)Gal(b1-4)GlcNAc(b1-3)Gal(b1-4)GlcNAc
Outline: as §1

[21] = molecular target: Gal(b1-4)GlcNAc(b1-3)Gal(b1-4)[Fuc(a1-3)]GlcNAc(b1-3)Gal(b1-4)[Fuc(a1-3)]GlcNAc
Outline: as §1

[22] = molecular target: Gal(b1-4)GlcNAc(b1-3)GalNAc
Outline: as §1

[23] = molecular target: Gal(b1-4)GlcNAc(b1-3)[Gal(b1-4)GlcNAc(b1-6)]Gal(b1-4)GlcNAc
Outline: as §1

[24] = molecular target: Gal(b1-4)GlcNAc(b1-3)[GlcNAc(b1-6)]Gal(b1-4)GlcNAc
Outline: as §1

[25] = molecular target: Gal(b1-4)GlcNAc(b1-6)Gal(b1-4)GlcNAc
Outline: as §1

[26] = molecular target: Gal(b1-4)GlcNAc(b1-6)Gal(b1-4)GlcNAc(b1-6)GalNAc
Outline: as §1

[27] = molecular target: Gal(b1-4)GlcNAc(b1-6)GalNAc
Outline: as §1

[28] = molecular target: Gal(b1-4)GlcNAc(b1-6)[Gal(b1-3)]GalNAc
Outline: as §1

Gal3S(b1-3)GalNAc = molecular target: Gal3S(b1-3)GalNAc
Outline: as §1

Gal3S(b1-3)GlcNAc = molecular target: Gal3S(b1-3)GlcNAc
Outline: as §1

[29] = molecular target: Gal3S(b1-3)[Fuc(a1-4)]GlcNAc
Outline: as §1

Gal3S(b1-4)Glc = molecular target: Gal3S(b1-4)Glc
Outline: as §1

Gal3S(b1-4)Glc6S = molecular target: Gal3S(b1-4)Glc6S
Outline: as §1

Gal3S(b1-4)GlcNAc = molecular target: Gal3S(b1-4)GlcNAc
Outline: as §1

B1: Surfactant Protein D (Human); Neck + Carbohydrate Recognition Domain (NCRD) (Homo sapiens) (protein)
chain: MLLFLLSALVLLTQPLGYLEAEMKTYSHRTMPSACTLVMCSSVESGLPGRDRDGREGPRGEKGDPGLPGAAGQAGMPGQAGPVGPKGDNGSVGEPGPKGDTGPSGPPGPPGVPGPAGREGALGKQGNIGPQGKPGPKGEAGPKGEVGAPGMQGSAGARGLAGPKGERGVPGERGVPGNTGAAGSAGAMGPQGSPGARGPPGLKGDKGIPGDKGAKGESGLPDVASLRQQVEALQGQVQHLQAAFSQYKKVELFPNGQSVGEKIFKTAQFVKPFTEAQLLCTQAGGQLASPRSAAENAALQQLVVAKNEAAFLSMTDSKTEGKFTYPTGESLVYSNWAPGEPNDDGGSEDCVEIFTNGKWNDVACGEKRLVVCEF
- glycan array binding signal (z-score) (Gal(b1-3)GlcNAc): -0.532
- glycan array binding signal (z-score) [1]: -0.61
- glycan array binding signal (z-score) [2]: -0.538
- glycan array binding signal (z-score) [3]: -0.569
- glycan array binding signal (z-score) [4]: -0.457
- glycan array binding signal (z-score) [5]: 0.524
- glycan array binding signal (z-score) [6]: 1.38
- glycan array binding signal (z-score) [7]: -0.512
- glycan array binding signal (z-score) [8]: 2.11
- glycan array binding signal (z-score) [9]: -0.547
- glycan array binding signal (z-score) [10]: -0.534
- glycan array binding signal (z-score) [11]: -0.498
- glycan array binding signal (z-score) [12]: -0.539
- glycan array binding signal (z-score) [13]: -0.523
- glycan array binding signal (z-score) [14]: -0.557
- glycan array binding signal (z-score) (Gal(b1-4)Glc): -0.595
- glycan array binding signal (z-score) (Gal(b1-4)Glc6S): -0.372
- glycan array binding signal (z-score) (Gal(b1-4)GlcNAc): -0.574
- glycan array binding signal (z-score) [15]: -0.555
- glycan array binding signal (z-score) [16]: -0.543
- glycan array binding signal (z-score) [17]: -0.526
- glycan array binding signal (z-score) [18]: -0.354
- glycan array binding signal (z-score) [19]: -0.282
- glycan array binding signal (z-score) [20]: -0.442
- glycan array binding signal (z-score) [21]: -0.362
- glycan array binding signal (z-score) [22]: -0.594
- glycan array binding signal (z-score) [23]: -0.488
- glycan array binding signal (z-score) [24]: -0.407
- glycan array binding signal (z-score) [25]: -0.496
- glycan array binding signal (z-score) [26]: -0.392
- glycan array binding signal (z-score) [27]: -0.546
- glycan array binding signal (z-score) [28]: -0.555
- glycan array binding signal (z-score) (Gal3S(b1-3)GalNAc): -0.355
- glycan array binding signal (z-score) (Gal3S(b1-3)GlcNAc): -0.225
- glycan array binding signal (z-score) [29]: -0.178
- glycan array binding signal (z-score) (Gal3S(b1-4)Glc): -0.335
- glycan array binding signal (z-score) (Gal3S(b1-4)Glc6S): -0.317
- glycan array binding signal (z-score) (Gal3S(b1-4)GlcNAc): -0.354
